Positions count from the first letter of the chain named. The list shows a part of the results.
T1: RBFOX1 RRM (Homo sapiens, UniProt Q9NWB1 109-208)
T1 sequence: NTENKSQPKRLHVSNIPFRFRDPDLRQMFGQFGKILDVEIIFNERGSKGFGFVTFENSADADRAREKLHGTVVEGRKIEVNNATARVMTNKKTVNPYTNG

B1: UAUAUAA (DNA:RNA)
RNA: GGGAGACCGGAAUUCAGAUUGUCCUAUAUAAUUAAAUCCCGUCGUAGCCACCA
DNA 1: CAATCTGAATTCCGGTCTCCC
DNA 2: TGGTGGCTACGACGGGATT
B2: AGCCUUU (DNA:RNA)
RNA: B1 RNA with U25A, A26G, U27C, A28C, A30U, A31U
DNA 1: CAATCTGAATTCCGGTCTCCC
DNA 2: TGGTGGCTACGACGGGATT
B3: GCCUGAU (DNA:RNA)
RNA: B1 RNA with U25G, A26C, U27C, A28U, U29G, A31U
DNA 1: CAATCTGAATTCCGGTCTCCC
DNA 2: TGGTGGCTACGACGGGATT
B4: AGAUAUC (DNA:RNA)
RNA: GGGAGACCGGAAUUCAGAUUGUCCAGAUAUCUUAAAUCCCGUCGUAGCCACCA
DNA 1: CAATCTGAATTCCGGTCTCCC
DNA 2: TGGTGGCTACGACGGGATT
B5: GGCUCGU (DNA:RNA)
RNA: B4 RNA with A25G, A27C, A29C, U30G, C31U
DNA 1: CAATCTGAATTCCGGTCTCCC
DNA 2: TGGTGGCTACGACGGGATT
B6: AACUUAC (DNA:RNA)
RNA: B4 RNA with G26A, A27C, A29U, U30A
DNA 1: CAATCTGAATTCCGGTCTCCC
DNA 2: TGGTGGCTACGACGGGATT
B7: UCUCGUG (DNA:RNA)
RNA: B1 RNA with A26C, A28C, U29G, A30U, A31G
DNA 1: CAATCTGAATTCCGGTCTCCC
DNA 2: TGGTGGCTACGACGGGATT
B8: GAGUAAA (DNA:RNA)
RNA: B1 RNA with U25G, U27G, A28U, U29A
DNA 1: CAATCTGAATTCCGGTCTCCC
DNA 2: TGGTGGCTACGACGGGATT
B9: UGCUCAG (DNA:RNA)
RNA: B4 RNA with A25U, A27C, A29C, U30A, C31G
DNA 1: CAATCTGAATTCCGGTCTCCC
DNA 2: TGGTGGCTACGACGGGATT
B10: GCGGGUA (DNA:RNA)
RNA: B4 RNA with A25G, G26C, A27G, U28G, A29G, C31A
DNA 1: CAATCTGAATTCCGGTCTCCC
DNA 2: TGGTGGCTACGACGGGATT
B11: AAGCCAG (DNA:RNA)
RNA: B1 RNA with U25A, U27G, A28C, U29C, A31G
DNA 1: CAATCTGAATTCCGGTCTCCC
DNA 2: TGGTGGCTACGACGGGATT
B12: CAUGCAU (DNA:RNA)
RNA: B1 RNA with U25C, A28G, U29C, A31U
DNA 1: CAATCTGAATTCCGGTCTCCC
DNA 2: TGGTGGCTACGACGGGATT
B13: GAAGAAG (DNA:RNA)
RNA: B4 RNA with A25G, G26A, U28G, U30A, C31G
DNA 1: CAATCTGAATTCCGGTCTCCC
DNA 2: TGGTGGCTACGACGGGATT
B14: AGGUGGA (DNA:RNA)
RNA: B4 RNA with A27G, A29G, U30G, C31A
DNA 1: CAATCTGAATTCCGGTCTCCC
DNA 2: TGGTGGCTACGACGGGATT
B15: GACUACU (DNA:RNA)
RNA: B4 RNA with A25G, G26A, A27C, U30C, C31U
DNA 1: CAATCTGAATTCCGGTCTCCC
DNA 2: TGGTGGCTACGACGGGATT
B16: AUCAGCC (DNA:RNA)
RNA: B4 RNA with G26U, A27C, U28A, A29G, U30C
DNA 1: CAATCTGAATTCCGGTCTCCC
DNA 2: TGGTGGCTACGACGGGATT
B17: AAGAUUG (DNA:RNA)
RNA: B1 RNA with U25A, U27G, A30U, A31G
DNA 1: CAATCTGAATTCCGGTCTCCC
DNA 2: TGGTGGCTACGACGGGATT
B18: CCGCUCU (DNA:RNA)
RNA: B1 RNA with U25C, A26C, U27G, A28C, A30C, A31U
DNA 1: CAATCTGAATTCCGGTCTCCC
DNA 2: TGGTGGCTACGACGGGATT
B19: CUCAUGA (DNA:RNA)
RNA: B1 RNA with U25C, A26U, U27C, A30G
DNA 1: CAATCTGAATTCCGGTCTCCC
DNA 2: TGGTGGCTACGACGGGATT
B20: GAAGUCG (DNA:RNA)
RNA: B1 RNA with U25G, U27A, A28G, A30C, A31G
DNA 1: CAATCTGAATTCCGGTCTCCC
DNA 2: TGGTGGCTACGACGGGATT
B21: AUGUCAC (DNA:RNA)
RNA: B4 RNA with G26U, A27G, A29C, U30A
DNA 1: CAATCTGAATTCCGGTCTCCC
DNA 2: TGGTGGCTACGACGGGATT
B22: AAAUGCA (DNA:RNA)
RNA: B4 RNA with G26A, A29G, U30C, C31A
DNA 1: CAATCTGAATTCCGGTCTCCC
DNA 2: TGGTGGCTACGACGGGATT
B23: AGUACCC (DNA:RNA)
RNA: B4 RNA with A27U, U28A, A29C, U30C
DNA 1: CAATCTGAATTCCGGTCTCCC
DNA 2: TGGTGGCTACGACGGGATT
B24: AGCAUUC (DNA:RNA)
RNA: B4 RNA with A27C, U28A, A29U
DNA 1: CAATCTGAATTCCGGTCTCCC
DNA 2: TGGTGGCTACGACGGGATT
B25: GCGCCAG (DNA:RNA)
RNA: B1 RNA with U25G, A26C, U27G, A28C, U29C, A31G
DNA 1: CAATCTGAATTCCGGTCTCCC
DNA 2: TGGTGGCTACGACGGGATT
B26: CCUGGUU (DNA:RNA)
RNA: B4 RNA with A25C, G26C, A27U, U28G, A29G, C31U
DNA 1: CAATCTGAATTCCGGTCTCCC
DNA 2: TGGTGGCTACGACGGGATT
B27: UCCCGUC (DNA:RNA)
RNA: B4 RNA with A25U, G26C, A27C, U28C, A29G
DNA 1: CAATCTGAATTCCGGTCTCCC
DNA 2: TGGTGGCTACGACGGGATT
B28: ACAUCCA (DNA:RNA)
RNA: B4 RNA with G26C, A29C, U30C, C31A
DNA 1: CAATCTGAATTCCGGTCTCCC
DNA 2: TGGTGGCTACGACGGGATT
B29: GCGUGGC (DNA:RNA)
RNA: B4 RNA with A25G, G26C, A27G, A29G, U30G
DNA 1: CAATCTGAATTCCGGTCTCCC
DNA 2: TGGTGGCTACGACGGGATT
B30: CGCGAAU (DNA:RNA)
RNA: B4 RNA with A25C, A27C, U28G, U30A, C31U
DNA 1: CAATCTGAATTCCGGTCTCCC
DNA 2: TGGTGGCTACGACGGGATT
B31: GUCUCCG (DNA:RNA)
RNA: B4 RNA with A25G, G26U, A27C, A29C, U30C, C31G
DNA 1: CAATCTGAATTCCGGTCTCCC
DNA 2: TGGTGGCTACGACGGGATT

target: T1, RBFOX1 RRM; test: EMSA; HiTS-Eq, 1 nM pool, 10 min; buffer printed only for the single-RNA assays: 10 mM Tris pH 7.5, 150 mM NaCl, 3.4 mM EDTA, 0.001% NP-40, 30 C; details: tags: His6 N-terminal (pET28a); label: 5' 32P
Procedure, shortened: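 These values rest on relative association constants, computed from read-count changes of each RNA species versus the control reaction and normalised to the cognate motif. Reads came from free RNA recovered by 8% native PAGE after purified RbFox RRM (wild type or mutant) at increasing concentrations was equilibrated for 10 min in 50 µL with 1 nM of a 5′-radiolabelled pool with 7 randomized nucleotides and DNA-annealed flanks.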

With B1 as the binder, how does the binding signal read?
Its binding signal is 0.00754 KA relative to UGCAUGU.

B2 was tested. Which binding signal did it give?
The binding signal was 0.00839 KA relative to UGCAUGU.

For B3, which binding signal is on record?
Its binding signal is 0.0272 KA relative to UGCAUGU.

B4 was tested. Which binding signal did it give?
Its binding signal is 0.00343 KA relative to UGCAUGU.

For B5, which binding signal is on record?
The binding signal was 0.0286 KA relative to UGCAUGU.

How did the binding signal turn out when B6 was run?
Its binding signal is 0.00294 KA relative to UGCAUGU.

How did the binding signal turn out when B7 was run?
The binding signal was 0.0175 KA relative to UGCAUGU.

With B8 as the binder, how does the binding signal read?
Its binding signal is 0.00477 KA relative to UGCAUGU.

B9 was tested. Which binding signal did it give?
The binding signal was 0.0212 KA relative to UGCAUGU.

For B10, which binding signal is on record?
The binding signal was 0.0169 KA relative to UGCAUGU.

How did the binding signal turn out when B11 was run?
The binding signal was 0.00442 KA relative to UGCAUGU.

B12 was tested. Which binding signal did it give?
Its binding signal is 0.0144 KA relative to UGCAUGU.

How did the binding signal turn out when B13 was run?
Its binding signal is 0.0104 KA relative to UGCAUGU.

For B14, which binding signal is on record?
Its binding signal is 0.00672 KA relative to UGCAUGU.

B15 was tested. Which binding signal did it give?
Its binding signal is 0.0038 KA relative to UGCAUGU.

Which binding signal does the source give for B16 here?
The binding signal was 0.00365 KA relative to UGCAUGU.

How did the binding signal turn out when B17 was run?
The binding signal was 0.0128 KA relative to UGCAUGU.

How did the binding signal turn out when B18 was run?
The binding signal was 0.00711 KA relative to UGCAUGU.

For B19, which binding signal is on record?
The binding signal was 0.00864 KA relative to UGCAUGU.

B20 was tested. Which binding signal did it give?
The binding signal was 0.0101 KA relative to UGCAUGU.

For B21, which binding signal is on record?
The binding signal was 0.0152 KA relative to UGCAUGU.

B22 was tested. Which binding signal did it give?
Its binding signal is 0.00973 KA relative to UGCAUGU.

With B23 as the binder, how does the binding signal read?
Its binding signal is 0.00349 KA relative to UGCAUGU.

How did the binding signal turn out when B24 was run?
Its binding signal is 0.00595 KA relative to UGCAUGU.

How did the binding signal turn out when B25 was run?
Its binding signal is 0.0189 KA relative to UGCAUGU.

For B26, which binding signal is on record?
The binding signal was 0.0179 KA relative to UGCAUGU.

B27 was tested. Which binding signal did it give?
The binding signal was 0.0051 KA relative to UGCAUGU.

B28 was tested. Which binding signal did it give?
The binding signal was 0.000399 KA relative to UGCAUGU.

How did the binding signal turn out when B29 was run?
Its binding signal is 0.0197 KA relative to UGCAUGU.

With B30 as the binder, how does the binding signal read?
The binding signal was 0.0101 KA relative to UGCAUGU.

B31 was tested. Which binding signal did it give?
The binding signal was 0.0144 KA relative to UGCAUGU.

— PMC9911399, “Two distinct binding modes provide the RNA-binding protein RbFox with extraordinary sequence specificity”
